# Measurements taken from PMC4891660.
# The chains behind the UniProt entries cited, without tags or fusion partners.
# UniProt Q9SN12: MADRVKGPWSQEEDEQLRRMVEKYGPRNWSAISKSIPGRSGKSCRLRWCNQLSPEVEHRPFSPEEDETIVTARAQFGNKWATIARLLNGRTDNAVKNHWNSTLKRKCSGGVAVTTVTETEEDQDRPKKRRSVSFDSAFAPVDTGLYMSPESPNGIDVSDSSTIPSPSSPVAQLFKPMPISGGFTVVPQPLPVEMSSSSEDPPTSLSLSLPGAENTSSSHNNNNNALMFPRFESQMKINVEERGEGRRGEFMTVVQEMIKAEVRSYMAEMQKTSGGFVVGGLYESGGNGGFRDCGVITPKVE
# UniProt O23160: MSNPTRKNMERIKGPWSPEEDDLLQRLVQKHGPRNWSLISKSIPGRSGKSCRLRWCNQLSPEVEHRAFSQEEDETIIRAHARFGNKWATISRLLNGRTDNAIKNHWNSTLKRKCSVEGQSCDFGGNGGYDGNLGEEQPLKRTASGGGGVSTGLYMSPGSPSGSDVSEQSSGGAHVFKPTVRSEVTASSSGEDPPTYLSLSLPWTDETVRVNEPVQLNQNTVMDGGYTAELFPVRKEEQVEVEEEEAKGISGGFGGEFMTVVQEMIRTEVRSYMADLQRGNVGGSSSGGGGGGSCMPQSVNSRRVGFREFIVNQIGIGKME
# UniProt Q9FDW1: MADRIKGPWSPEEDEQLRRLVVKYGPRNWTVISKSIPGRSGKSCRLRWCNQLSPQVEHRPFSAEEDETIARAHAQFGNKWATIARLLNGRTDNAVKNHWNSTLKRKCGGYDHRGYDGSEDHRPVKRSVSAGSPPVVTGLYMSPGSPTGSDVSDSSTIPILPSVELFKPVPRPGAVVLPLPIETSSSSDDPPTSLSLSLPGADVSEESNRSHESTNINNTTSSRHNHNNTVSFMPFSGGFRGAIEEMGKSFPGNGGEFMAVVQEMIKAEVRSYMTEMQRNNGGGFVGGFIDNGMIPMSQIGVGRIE
# UniProt Q8VZQ2: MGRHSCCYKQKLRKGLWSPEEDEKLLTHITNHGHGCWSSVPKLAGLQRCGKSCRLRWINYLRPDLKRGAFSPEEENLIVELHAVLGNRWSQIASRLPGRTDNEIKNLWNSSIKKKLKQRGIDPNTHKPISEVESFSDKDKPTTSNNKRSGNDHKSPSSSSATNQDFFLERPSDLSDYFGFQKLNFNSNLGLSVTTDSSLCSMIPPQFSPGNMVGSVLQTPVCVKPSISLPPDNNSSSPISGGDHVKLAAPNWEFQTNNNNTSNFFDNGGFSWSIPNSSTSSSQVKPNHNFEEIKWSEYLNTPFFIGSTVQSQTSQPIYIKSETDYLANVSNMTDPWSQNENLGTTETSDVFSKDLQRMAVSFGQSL
# Results are given in words; binding and its absence hold for the method and conditions named. For part of these data: In cells and extracts the contact can be indirect. Some results given as binding are weak or reduced against the parent protein; the word gives no strength. For part of these data: Sequences can lack the tags named with a protein.
# Experiments:
# [1] = target: T1, PYL6 fused to the GAL4 DNA binding domain (Arabidopsis) (UniProt Q8S8E3); experiment: two-hybrid; yeast two-hybrid; PYLs fused to the GAL4 DNA binding domain as baits, MYBs fused to the GAL4-activating domain as preys; growth on medium lacking His, Leu and Trp, with or without 5 μM ABA; several independent clones, dilutions spotted and photographed after 5 days
# T1 sequence: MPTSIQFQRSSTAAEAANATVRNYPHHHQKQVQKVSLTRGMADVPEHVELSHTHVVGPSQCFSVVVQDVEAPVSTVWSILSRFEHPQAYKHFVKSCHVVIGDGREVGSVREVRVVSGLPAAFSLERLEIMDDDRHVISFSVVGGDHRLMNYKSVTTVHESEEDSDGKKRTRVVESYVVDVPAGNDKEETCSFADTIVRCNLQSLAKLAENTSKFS
# [2] = target: T2, PYL8 fused to the GAL4 DNA binding domain (Arabidopsis) (UniProt Q9FGM1); experiment: as above
# T2 sequence: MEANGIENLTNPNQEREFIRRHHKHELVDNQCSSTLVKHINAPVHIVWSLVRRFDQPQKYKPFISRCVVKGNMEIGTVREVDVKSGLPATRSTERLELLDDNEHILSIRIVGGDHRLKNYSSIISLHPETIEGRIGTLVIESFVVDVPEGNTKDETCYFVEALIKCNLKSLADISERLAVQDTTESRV
# [3] = target: T3, PYL9 fused to the GAL4 DNA binding domain (Arabidopsis) (UniProt Q84MC7); experiment: as above
# T3 sequence: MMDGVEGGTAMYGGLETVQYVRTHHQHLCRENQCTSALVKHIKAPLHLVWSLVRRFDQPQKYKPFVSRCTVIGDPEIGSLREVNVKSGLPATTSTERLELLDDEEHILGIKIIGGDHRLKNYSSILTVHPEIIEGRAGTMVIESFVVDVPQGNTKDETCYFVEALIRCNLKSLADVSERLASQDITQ
# [4] = target: PYL9 fused to the N-terminal domain of firefly luciferase (Arabidopsis) (UniProt Q84MC7); experiment: split reporter; firefly luciferase (LUC) complementation; PYL9-nLUC co-transformed with MYB-cLUC into Arabidopsis Col-0 wild-type protoplasts
binding [1],binding [2],binding [3],binding [4],Substance
no binding,binds,binds weakly,–,MYB DOMAIN PROTEIN 77 (MYB77) fused to the GAL4-activating domain (from UniProt Q9SN12 1-301)
no binding,binds,–,–,MYB73 fused to the GAL4-activating domain (from UniProt O23160 1-320)
no binding,binds,binds weakly,–,MYB44 fused to the GAL4-activating domain (from UniProt Q9FDW1 1-305)
–,–,–,no binding,MYB61 fused to the C-terminal domain of firefly luciferase (from UniProt Q8VZQ2 1-366)
